Assay results from the supplement of paper PMC8728848.
The other results are listed elsewhere or left out.

Experiments:
Test in all cases: glycan array binding signal (z-score within array); higher = stronger binding
Settings in all cases: glycan notation: IUPAC condensed, linker removed
[1] = target: Fuc(a1-2)[GalNAc(a1-3)]Gal(b1-4)GlcNAc
Outline: (§1)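 Columns mapping to the same glycan were averaged after glycan names were converted to IUPAC-condensed notation. The data come from 3228 arrays in the Consortium for Functional Glycomics database, limited to those with an available protein sequence. Binding is reported as a within-array Z-score averaged across arrays of one protein sequence and across linkers.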

[2] = target: Fuc(a1-2)[GalNAc(a1-3)]Gal(b1-4)GlcNAc(b1-2)Man(a1-3)[GalNAc(a1-3)[Fuc(a1-2)]Gal(b1-4)GlcNAc(b1-2)Man(a1-6)]Man(b1-4)GlcNAc(b1-4)GlcNAc
Outline: as §1

[3] = target: Fuc(a1-2)[GalNAc(a1-3)]Gal(b1-4)GlcNAc(b1-3)Gal(b1-4)GlcNAc
Outline: as §1

[4] = target: Fuc(a1-2)[GalNAc(a1-3)]Gal(b1-4)GlcNAc(b1-3)Gal(b1-4)GlcNAc(b1-3)Gal(b1-4)GlcNAc
Outline: as §1

[5] = target: Fuc(a1-2)[GalNAc(a1-3)]Gal(b1-4)[Fuc(a1-3)]GlcNAc
Outline: as §1

[6] = target: Fuc(a1-2)[GalNAc(a1-4)]Gal(b1-4)GlcNAc
Outline: as §1

[7] = target: Fuc(a1-2)[GalNAc(b1-3)]Gal
Outline: as §1

Fuc(a1-3)GlcNAc = target: Fuc(a1-3)GlcNAc
Outline: as §1

[8] = target: Fuc(a1-3)[Gal(b1-4)]Glc6S
Outline: as §1

[9] = target: Fuc(a1-3)[Gal(b1-4)]GlcNAc
Outline: as §1

[10] = target: Fuc(a1-3)[Gal(b1-4)]GlcNAc(b1-2)Man(a1-3)[Fuc(a1-3)[Gal(b1-4)]GlcNAc(b1-2)Man(a1-6)]Man(b1-4)GlcNAc(b1-4)GlcNAc
Outline: as §1

[11] = target: Fuc(a1-3)[Gal(b1-4)]GlcNAc(b1-2)Man(a1-6)[Gal(b1-4)GlcNAc(b1-2)Man(a1-3)]Man(b1-4)GlcNAc(b1-4)GlcNAc
Outline: as §1

[12] = target: Fuc(a1-3)[Gal(b1-4)]GlcNAc(b1-3)Gal(b1-3)[Fuc(a1-4)]GlcNAc
Outline: as §1

[13] = target: Fuc(a1-3)[Gal(b1-4)]GlcNAc(b1-4)Gal(b1-4)[Fuc(a1-3)]GlcNAc
Outline: as §1

[14] = target: Fuc(a1-3)[Gal(b1-4)]GlcNAc(b1-4)Gal(b1-4)[Fuc(a1-3)]GlcNAc(b1-4)Gal(b1-4)[Fuc(a1-3)]GlcNAc
Outline: as §1

[15] = target: Fuc(a1-3)[Gal(b1-4)]GlcNAc6S
Outline: as §1

[16] = target: Fuc(a1-3)[Gal3S(b1-4)]Glc6S
Outline: as §1

[17] = target: Fuc(a1-3)[Gal3S(b1-4)]GlcNAc
Outline: as §1

[18] = target: Fuc(a1-3)[Gal3S(b1-4)]GlcNAc6S
Outline: as §1

[19] = target: Fuc(a1-3)[GalNAc(b1-4)]GlcNAc
Outline: as §1

[20] = target: Fuc(a1-3)[Neu5Ac(a2-3)]Gal(b1-4)GlcNAc(b1-3)GalNAc
Outline: as §1

Fuc(a1-4)GlcNAc = target: Fuc(a1-4)GlcNAc
Outline: as §1

Fuc(b1-3)GlcNAc = target: Fuc(b1-3)GlcNAc
Outline: as §1

Gal(a1-2)Gal = target: Gal(a1-2)Gal
Outline: as §1

Gal(a1-3)Gal = target: Gal(a1-3)Gal
Outline: as §1

Gal(a1-3)Gal(b1-3)GlcNAc = target: Gal(a1-3)Gal(b1-3)GlcNAc
Outline: as §1

Gal(a1-3)Gal(b1-4)Glc = target: Gal(a1-3)Gal(b1-4)Glc
Outline: as §1

Gal(a1-3)Gal(b1-4)GlcNAc = target: Gal(a1-3)Gal(b1-4)GlcNAc
Outline: as §1

[21] = target: Gal(a1-3)Gal(b1-4)[Fuc(a1-3)]GlcNAc
Outline: as §1

[22] = target: Gal(a1-3)Gal(b1-4)[Fuc(a1-3)]GlcNAc(b1-2)Man(a1-3)[Gal(a1-3)Gal(b1-4)[Fuc(a1-3)]GlcNAc(b1-2)Man(a1-6)]Man(b1-4)GlcNAc(b1-4)GlcNAc
Outline: as §1

Gal(a1-3)GalNAc = target: Gal(a1-3)GalNAc
Outline: as §1

[23] = target: Gal(a1-3)[Gal(a1-4)]Gal(b1-4)GlcNAc
Outline: as §1

Gal(a1-4)Gal(b1-4)Glc = target: Gal(a1-4)Gal(b1-4)Glc
Outline: as §1

Gal(a1-4)Gal(b1-4)GlcNAc = target: Gal(a1-4)Gal(b1-4)GlcNAc
Outline: as §1

[24] = target: Gal(a1-4)Gal(b1-4)GlcNAc(b1-3)Gal(b1-4)Glc
Outline: as §1

Gal(a1-4)GlcNAc = target: Gal(a1-4)GlcNAc
Outline: as §1

Gal(a1-6)Glc = target: Gal(a1-6)Glc
Outline: as §1

Gal(b1-2)Gal = target: Gal(b1-2)Gal
Outline: as §1

B1: Spy0252 (Streptococcus pyogenes), Q9A1I9_STRP1 (protein)
chain: MNMKKLASLAMLGASVLGLAACGGKSQKEAGASKSDTAKTEITWWAFPVFTQEKAEDGVGTYEKKLIAAFEKANPEIKVKLETIDFTSGPEKITTAIEAGTAPDVLFDAPGRIIQYGKNGKLADLNDLFTEEFTKDVNNDKLIQASKAGDTAYMYPISSAPFYMALNKKMLKDAGVLDLVKEGWTTDDFEKVLKALKDKGYNPGSFFANGQGGDQGPRAFFANLYSSHITDDKVTKYTTDDANSIKAMTKISNWIKDGLMMNGSQYDGSADIQNFANGQTSFTILWAPAQPGIQAKLLEASKVDYLEIPFPSDDGKPELEYLVNGFAVFNNKDEQKVAASKTFIQFIADDKEWGPKNVVRTGAFPVRTSYGDLYKDKRMEKIAEWTKFYSPYYNTIDGFAEMRTLWFPMVQAVSNGDEKPEDALKAFTEKANKTIKKTQ
[1]
  glycan array binding signal (z-score): -0.145
[2]
  glycan array binding signal (z-score): -0.225
[3]
  glycan array binding signal (z-score): -0.127
[4]
  glycan array binding signal (z-score): 0.837
[5]
  glycan array binding signal (z-score): -0.212
[6]
  glycan array binding signal (z-score): -0.245
[7]
  glycan array binding signal (z-score): -0.061
Fuc(a1-3)GlcNAc
  glycan array binding signal (z-score): -0.259
[8]
  glycan array binding signal (z-score): -0.273
[9]
  glycan array binding signal (z-score): -0.266
[10]
  glycan array binding signal (z-score): -0.261
[11]
  glycan array binding signal (z-score): -0.236
[12]
  glycan array binding signal (z-score): -0.258
[13]
  glycan array binding signal (z-score): -0.177
[14]
  glycan array binding signal (z-score): -0.228
[15]
  glycan array binding signal (z-score): -0.268
[16]
  glycan array binding signal (z-score): -0.176
[17]
  glycan array binding signal (z-score): -0.255
[18]
  glycan array binding signal (z-score): -0.242
[19]
  glycan array binding signal (z-score): -0.236
[20]
  glycan array binding signal (z-score): -0.11
Fuc(a1-4)GlcNAc
  glycan array binding signal (z-score): -0.266
Fuc(b1-3)GlcNAc
  glycan array binding signal (z-score): -0.263
Gal(a1-2)Gal
  glycan array binding signal (z-score): -0.183
Gal(a1-3)Gal
  glycan array binding signal (z-score): -0.278
Gal(a1-3)Gal(b1-3)GlcNAc
  glycan array binding signal (z-score): -0.267
Gal(a1-3)Gal(b1-4)Glc
  glycan array binding signal (z-score): 4.21
Gal(a1-3)Gal(b1-4)GlcNAc
  glycan array binding signal (z-score): -0.273
[21]
  glycan array binding signal (z-score): -0.266
[22]
  glycan array binding signal (z-score): -0.255
Gal(a1-3)GalNAc
  glycan array binding signal (z-score): -0.256
[23]
  glycan array binding signal (z-score): 0.178
Gal(a1-4)Gal(b1-4)Glc
  glycan array binding signal (z-score): -0.171
Gal(a1-4)Gal(b1-4)GlcNAc
  glycan array binding signal (z-score): -0.203
[24]
  glycan array binding signal (z-score): 1.86
Gal(a1-4)GlcNAc
  glycan array binding signal (z-score): -0.162
Gal(a1-6)Glc
  glycan array binding signal (z-score): -0.263
Gal(b1-2)Gal
  glycan array binding signal (z-score): -0.138
